Test results published in PubChem BioAssay AID651820 (National Center for Advancing Translational Sciences (NCATS), 2012).
Several values for one entry are separate records, joined by “and”; a condition that tells them apart may be missing. Equal entries are not always repeated. In all, about 340,000 compounds went through this assay and about 12,000 (3.5%) were called active. This list was built around the results that the source calls inconclusive (neither active nor inactive); the mix of calls is not that of the screen. Calls follow the shape of the dose curve; as a rule, active = well fitted inhibition curve with a large enough effect; inconclusive = small, poorly fitted or top-dose-only effect, or another doubt; inactive = no such curve, though single readings can be large or run the other way. Potencies of inconclusive entries are doubtful fits and often do not repeat.
% is scaled to controls: 0 for no effect and ±100 for the full control effect; potency is read from the fitted curve at half-maximal effect; tags tell the direction and shape of the fitted curve.

Test: qHTS Assay for Inhibitors of Hepatitis C Virus (HCV)
Details: Huh7.5.1 HCVcc-Cre (HCVcc is cell-culture hepatitis C virus) infection, luciferase reporter, 44 h; activity change, negative = inhibition: at 41.8 µM (top of the series)
Outline: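 Antiviral activity was scored by luciferase reporter output from cells infected with HCVcc-Cre (~0.5 moi) in presence of compound, 44 h infection period, cells seeded 1,000/well 4 h prior.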
With O=C(COC(=O)c1cc([N+](=O)[O-])ccc1NCCO)c1ccccc1 the Potency was inconclusive: 11.2 µM [inhibitor, partial curve]. With O=C(NCc1ccco1)c1cccc2c1C(=O)c1ccc(N3CCC(Cc4ccccc4)CC3)cc1S2(=O)=O the Potency was inconclusive: 10 µM [inhibitor, partial curve]. In the case of CC(=O)OCC1(C)CN(c2ccccc2)NC1=O (centres undefined), the “activity change, negative = inhibition” value is reported as inactive: -1.19%. In the case of O=C(COc1cc(Cl)ccc1Cl)Nc1nnc(C2CC2)s1, the “activity change, negative = inhibition” value is reported as inactive: 4.95%. In the case of Cc1ccc(Nc2nc(CSc3nnc(-c4cccs4)o3)cs2)cc1, the Potency is reported as inconclusive: 11.2 µM [inhibitor, partial curve] and inconclusive: 31.6 µM [inhibitor, single point]. In the case of CCOc1ccc(NC(=O)CN(C)C(=O)c2sc3ccccc3c2Cl)cc1OCC, the Potency is reported as inconclusive: 3.16 µM [inhibitor, partial curve]. For COc1ccc(C(=O)C2CCCN(Cc3ccc4nonc4c3)C2)c(C)c1 (centres undefined), the Potency was inconclusive: 31.6 µM [inhibitor, single point]. In the case of COc1cc(/C=C/C(=O)c2ccc(C)c([N+](=O)[O-])c2)cc(OC)c1O, the Potency is reported as inconclusive: 35.5 µM [inhibitor, partial curve]. With Cc1cccc(NC(=O)c2cc(-c3cc(C)c(C)cc3O)n[nH]2)c1 the Potency was inconclusive: 5.01 µM [inhibitor, single point]. In the case of CC(C)CCNC(=O)C1CCN(c2nnc(-n3cccc3)s2)CC1, the Potency is reported as inconclusive: 12.6 µM [inhibitor, single point]. For CCCC(=O)Nc1sc2c(c1C#N)CCCC2, the Potency was inconclusive: 11.2 µM [inhibitor, partial curve]. With COCCn1c(=O)[nH]c2cc(C(=O)N3CCN(c4ccc(Cl)cc4)CC3)ccc2c1=O the Potency was active: 8.91 µM. In the case of CCc1cc(C(=O)OC)c(NC(=O)CC2SC(=NC)N(C)C2=O)s1 (centres undefined), the Potency is reported as active: 15.8 µM. For Cc1ccc(C)c(N2CCN(C(=O)CCCn3c(=S)[nH]c4cc5c(cc4c3=O)OCO5)CC2)c1, the Potency was inconclusive: 0.891 µM [inhibitor, full curve, poor fit]. With Cc1nc2sc(C(N)=O)c(N)c2c(C)c1CC(=O)c1ccccc1 the “activity change, negative = inhibition” value was inactive: -9.12%. In the case of Nc1cc(C(=O)O)ccc1N1CCCCCC1, the Potency is reported as active: 5.62 µM. For CCc1nc2nc(C)c(NS(=O)(=O)c3ccc(Cl)s3)c(=O)n2[nH]1, the “activity change, negative = inhibition” value was inactive: -5.75%. With CN1CCN(c2nc(-c3ccccc3)cc(C(F)(F)F)n2)CC1 the Potency was inconclusive: 7.94 µM [inhibitor, partial curve]. With COc1ccc(C)cc1N(CC(=O)NCCSCc1cccc(Cl)c1)S(C)(=O)=O the Potency was inconclusive: 11.2 µM [inhibitor, partial curve]. In the case of N#CC1=C(N)SC(N)=C(C#N)C1c1cccc(Oc2ccccc2)c1, the Potency is reported as inconclusive: 20 µM [inhibitor, single point]. In the case of O=C(COc1ccccc1Cl)Nc1cccc(S(=O)(=O)N2CCCC2)c1, the Potency is reported as active: 10 µM. With CCOC(=O)C1Cn2c(nc3c(c2=O)C(C)(CC)Cc2ccccc2-3)S1 (centres undefined) the Potency was inconclusive: 31.6 µM [inhibitor, single point]. With COc1ccc(-c2[nH]ncc2CN2CCN(c3ccc(F)cc3)CC2)cc1 the Potency was inconclusive: 14.1 µM [inhibitor, single point]. For CCOC(=O)N1CCN(C(=O)COc2ccc3c(c2)C(=O)CC(C)(C)O3)CC1, the “activity change, negative = inhibition” value was inactive: 14.2%. For O=C(Cn1[nH]c(=O)c2ccccc2c1=O)NCCN1C(=O)S/C(=C\c2ccccc2)C1=O, the Potency was active: 11.2 µM. With COc1ccc(NS(=O)(=O)c2ccc(N/N=C/c3ccc(N4CCOCC4)cc3)c([N+](=O)[O-])c2)cc1 the “activity change, negative = inhibition” value was inactive: 13.4%. In the case of Cc1cc(OCCCC(=O)NC2=NCCS2)ccc1Cl, the “activity change, negative = inhibition” value is reported as inactive: 5.95%. For CC1C/C(=C/c2ccccn2)C(=O)/C(=C/c2ccccn2)C1 (centres undefined), the Potency was active: 2.24 µM. With CCOc1ccc(N2C(=O)c3ccccc3C2=O)cc1 the “activity change, negative = inhibition” value was inactive: 9.72%. With Cn1cc([N+](=O)[O-])c(C(=O)NCc2cc3ccccc3[nH]2)n1 the “activity change, negative = inhibition” value was inactive: 2.79%. With CC(=O)N1CCc2cc(S(=O)(=O)NC(C)c3ccccc3)ccc21 (centres undefined) the Potency was inconclusive: 3.55 µM [inhibitor, single point]. For Cc1nc(N2CCN(c3ccccn3)CC2)c2c(C)c(C(=O)Nc3ccc(Cl)cc3)sc2n1, the Potency was inconclusive: 14.1 µM [inhibitor, single point]. For Cc1ccc2c(c1)[C@@H]1CN(C)CC[C@@H]1N2C(=O)Nc1cccc(C(F)(F)F)c1, the Potency was active: 10 µM. For Cn1cccc1/C=C1\Cc2ccccc2C1=O, the Potency was inconclusive: 22.4 µM [inhibitor, single point]. In the case of O=C1C(NS(=O)(=O)c2cccs2)=C(N2CCN(c3cccc(C(F)(F)F)c3)CC2)C(=O)c2ccccc21, the Potency is reported as inconclusive: 31.6 µM [inhibitor, single point]. In the case of C=CCc1c(C)[nH]c2c(OC)cccc2c1=S, the Potency is reported as inconclusive: 10 µM [inhibitor, partial curve]. With COc1ccc(C(F)(F)F)cc1N/C=C\c1nnnn1-c1ccc(C)cc1 the Potency was inconclusive: 1.58 µM [inhibitor, partial curve]. With O=C(NCc1ccccn1)c1ccc2c(c1)N(Cc1ccccc1)CCS2 the Potency was inconclusive: 8.91 µM [inhibitor, single point]. For COc1ccc(NC(=O)c2ccc(Cl)nc2)cc1S(=O)(=O)N1CCOCC1, the Potency was inconclusive: 12.6 µM [inhibitor, single point]. In the case of Cc1[nH]c2ccccc2c1N=Nc1ccc(F)cc1, the Potency is reported as inconclusive: 10 µM [inhibitor, partial curve]. In the case of CCOC(=O)C1=C(C)Nc2ccccc2N=C1NC(=O)c1cccc(S(=O)(=O)NCc2ccccc2)c1, the Potency is reported as inconclusive: 12.6 µM [inhibitor, single point]. For OCCOCCN1CCN(C2=Nc3ccccc3Sc3ccccc32)CC1, the Potency was inconclusive: 11.2 µM [inhibitor, single point]. With CC[N+](CC)(CC#Cc1ccccc1)CC(=O)c1ccc(Cl)cc1 the Potency was inconclusive: 8.91 µM [inhibitor, partial curve]. With O=C(CCc1ccccc1)NCc1ccncc1 the “activity change, negative = inhibition” value was inactive: 10.2%. With Cc1ccc(S(=O)(=O)N2CCOCC2)cc1NC(=O)CN1CCC(Cc2ccccc2)CC1 the Potency was inconclusive: 31.6 µM [inhibitor, single point]. For Nc1nn(-c2ccccc2)c(N)c1N=Nc1ccccc1, the Potency was inconclusive: 2 µM [inhibitor, full curve]. With CS(=O)(=O)N1CCN(c2ccccc2NC(=O)c2ccc(-c3ccc(Cl)cc3Cl)o2)CC1 the Potency was “inactive”. With CC(C)(C)c1ccc(OCCNCc2ccccc2)cc1 the “activity change, negative = inhibition” value was inactive: 0.41%. With O=C(CCN1CCCCC1)Nc1ccc(Br)cc1 the Potency was inconclusive: 14.1 µM [inhibitor, single point]. With COCC(C)n1c(-c2ccc3c(c2)NC(=O)CO3)csc1=Nc1ccc(OC(F)F)cc1 (centres undefined) the Potency was active: 12.6 µM and active: 10 µM. In the case of COc1ccc(OC)c2sc(N3CCN(c4ccccc4)CC3)nc12, the Potency is reported as inconclusive: 7.94 µM [inhibitor, partial curve]. For O=C(CCC(=O)Nc1cccc([N+](=O)[O-])c1)NCc1ccccc1, the “activity change, negative = inhibition” value was inactive: 19.5%. In the case of Cc1ccc2c(C)c(C(=O)N(Cc3ccc(F)cc3)C3CCS(=O)(=O)C3)oc2c1 (centres undefined), the Potency is reported as inconclusive: 31.6 µM [inhibitor, single point]. For O=C(NCCc1csc(-c2ccccc2)n1)c1ccccc1F, the Potency was inconclusive: 11.2 µM [inhibitor, partial curve]. With Cc1ccc(Sc2ncccc2C(=O)O)cc1 the “activity change, negative = inhibition” value was inactive: 14.6%. With O=C(OCC(=O)N1CCN(c2ccccc2)CC1)c1ccccn1 the “activity change, negative = inhibition” value was inactive: 2.59%. In the case of Cc1cc(C)c2nc(NC(=O)c3ccc4c(=O)n5c(nc4c3)CCCCC5)sc2c1, the Potency is reported as inconclusive: 20 µM [inhibitor, partial curve, poor fit]. In the case of CC(=O)Nc1cccc(NC(=O)CSc2ncc(-c3ccc(Cl)cc3)n2Cc2ccco2)c1, the Potency is reported as active: 10 µM. With CCN1C(=O)[C@H]2[C@@H](c3ccc(-c4ccc(F)cc4)cc3)N[C@@](Cc3ccccc3)(C(=O)OC)[C@H]2C1=O the Potency was inconclusive: 11.2 µM [inhibitor, partial curve]. With Cc1ccccc1OCC(O)Cn1c(=N)n(Cc2ccccc2)c2ccccc21 (centres undefined) the Potency was inconclusive: 22.4 µM [inhibitor, single point]. In the case of C[C@]12C(=O)N(c3cccc(F)c3)C(=O)N1[C@@H]1c3ccccc3OC[C@@H]1[C@H]2c1ccccc1, the Potency is reported as inconclusive: 15.8 µM [inhibitor, partial curve]. With COc1ccc2c(CC(=O)NNC(=O)c3ccccc3F)coc2c1 the “activity change, negative = inhibition” value was inactive: 6.42%. For NC(=O)CSc1nc2ccccc2nc1SCC(N)=O, the Potency was inconclusive: 22.4 µM [inhibitor, single point]. With CCCN(CC(=O)Nc1ccccc1C)C(=O)C1CC(=O)N(c2ccccc2OCC)C1 (centres undefined) the “activity change, negative = inhibition” value was inactive: 14.9%. In the case of COC(=O)C1=C(C)NC(C)=C(C(=O)OC)C1c1ccc(-c2cccc([N+](=O)[O-])c2)o1, the Potency is reported as inconclusive: 7.08 µM [inhibitor, partial curve]. With O=C(Nc1nccs1)c1ccc(-c2ccc(F)cc2)o1 the Potency was inconclusive: 35.5 µM [inhibitor, partial curve]. With Cc1cc(=O)n2nc(N3CCCC(C(=O)NC4CCC(C)CC4)C3)sc2n1 (centres undefined) the “activity change, negative = inhibition” value was inactive: -0.781%. In the case of CCOC(=O)N1CCN(c2nnc(-c3ccc(C)cc3)c3ccccc23)CC1, the Potency is reported as inconclusive: 11.2 µM [inhibitor, partial curve]. For O=C1C2C(c3ccccc3)(C(=O)N1c1ccc(Cl)cc1)C2(c1ccccc1)c1ccccc1 (centres undefined), the Potency was inconclusive: 14.1 µM [inhibitor, partial curve].
